Positions count from the first letter of the chain named. Read-outs that look alike come from different tables or passages of the source. These are yes or no findings as the source states them, for the method shown. For some of these results: In cells and extracts the contact can be indirect. Some entries that bind do so weakly or less than the wild type. For some of these results: Where a sequence is shown, tags or fusion partners need not be part of it. Blank lines part the entries; values can stand above or below the molecule they belong to.
Experiments:
[1] = molecular target: full length wild type rat p75^NTR tagged at the C terminus with EGFP(A206K) (rat) (UniProt P07174); assay: FRET or BRET; homo-FRET anisotropy microscopy of EGFP-tagged full-length rat p75NTR in transfected COS-7 cells, before and for 15 min after NGF (100 ng/ml) or vehicle
[2] = molecular target: human p75^NTR death domain (330–427) (human) (UniProt P08138); assay: NMR [1H-15N] HSQC spectra; p75NTR DD alone in phosphate buffer, pH 6.9, 28°C; both purified
[3] = molecular target: human p75^NTR death domain (330–427) (human) (UniProt P08138); assay: condition: only in TRIS or HEPES buffer at pH 6.0–7.0; NMR [1H-15N] HSQC spectra; p75NTR DD alone in TRIS or HEPES buffer at pH 6.0–7.0; both purified
[4] = molecular target: human p75^NTR death domain (330–427) (human) (UniProt P08138); assay: NMR solution structure; 1 mM 13C,15N-labelled p75NTR DD mixed with 1 mM unlabelled p75NTR DD; 50 mM phosphate buffer, 10 mM DTT, 1 mM EDTA, pH 6.9, 28°C; both purified
[5] = molecular target: human RhoA (2–190), unprenylated RhoA:GDP:Mg2+ (human) (UniProt P61586); assay: SPR; unprenylated RhoA:GDP:Mg2+ immobilised by amine coupling on CM5 chip; BIAcore T200, 22°C; 10 mM HEPES, 50 mM NaCl, 0.005% Surfactant P20, pH 7.0 (1 mM MgCl2 and 100 µM GDP for RhoGDI); steady-state analysis, one binding site model; both purified
[6] = molecular target: full-length human p75^NTR, wild type (human) (UniProt P08138); assay: co-IP; transfected HEK293 cells; lysate immunoprecipitated with anti-p75 antibody (ANT-007) on Protein G-Sepharose, 16 hr at 4°C; washes with 1% Triton X-100, 0.2 M NaCl; Western blot
[7] = molecular target: full length rat p75^NTR CARD binding site (CBS) mutant D355A/H359A/E363A tagged at the C terminus with EGFP(A206K) (rat) (UniProt P07174); assay: FRET or BRET; homo-FRET anisotropy microscopy of EGFP-tagged full-length rat p75NTR in transfected COS-7 cells, before and for 15 min after NGF (100 ng/ml) or vehicle
[8] = molecular target: full-length human p75^NTR, wild type (human) (UniProt P08138); assay: co-IP; transfected HEK293 cells; lysate immunoprecipitated with anti-p75 antibody (ANT-007) on Protein G-Sepharose, 16 hr at 4°C; washes with 1% Triton X-100, 0.2 M NaCl; Western blot; remark: listed apart in the source
[9] = molecular target: human p75^NTR death domain (330–427) (human) (UniProt P08138); assay: NMR titration; [1H-15N] HSQC spectra of p75NTR DD in the presence of RhoGDI or RhoGDI ΔN, molar ratio 1:4, pH 6.9, 28°C; both purified
[10] = molecular target: human p75^NTR death domain (330–427) (human) (UniProt P08138); assay: NMR titration; [1H-15N] HSQC spectra of 15N-RhoGDI in complex with p75NTR DD in the presence of 250 mM NaCl; 20 mM HEPES, pH 6.9, 28°C; both purified
[11] = molecular target: human p75^NTR death domain (330–427) (human) (UniProt P08138); assay: NMR solution structure; 0.5 mM 13C,15N-labelled partner mixed with 2 mM unlabelled partner; 10 mM HEPES, 10 mM DTT, 1 mM EDTA, pH 6.9, 28°C; both purified

By UniProt entry, the sequences of proteins in these tests, tags left out. Where a name states a change or a piece, a line headed by the entry shows the natural chain unless it says otherwise. Chains listed by the source or under a name are the forms on record and can include a tag or linker. Residues count along the entry.
full length wild type rat p75^NTR tagged at the C terminus with EGFP(A206K) (P07174, residues 30-425): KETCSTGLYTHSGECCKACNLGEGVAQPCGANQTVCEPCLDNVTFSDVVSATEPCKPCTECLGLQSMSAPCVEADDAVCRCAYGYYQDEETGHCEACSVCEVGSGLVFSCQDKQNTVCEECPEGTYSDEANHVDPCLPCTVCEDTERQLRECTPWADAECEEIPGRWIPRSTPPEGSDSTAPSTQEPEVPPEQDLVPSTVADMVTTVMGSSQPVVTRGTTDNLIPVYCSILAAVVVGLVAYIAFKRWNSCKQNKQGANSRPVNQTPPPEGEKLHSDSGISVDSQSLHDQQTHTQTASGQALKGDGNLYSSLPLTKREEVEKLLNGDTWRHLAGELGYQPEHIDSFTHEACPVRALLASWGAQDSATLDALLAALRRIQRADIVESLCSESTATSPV
full length rat p75^NTR CARD binding site (CBS) mutant D355A/H359A/E363A tagged at the C terminus with EGFP(A206K) (P07174, form named): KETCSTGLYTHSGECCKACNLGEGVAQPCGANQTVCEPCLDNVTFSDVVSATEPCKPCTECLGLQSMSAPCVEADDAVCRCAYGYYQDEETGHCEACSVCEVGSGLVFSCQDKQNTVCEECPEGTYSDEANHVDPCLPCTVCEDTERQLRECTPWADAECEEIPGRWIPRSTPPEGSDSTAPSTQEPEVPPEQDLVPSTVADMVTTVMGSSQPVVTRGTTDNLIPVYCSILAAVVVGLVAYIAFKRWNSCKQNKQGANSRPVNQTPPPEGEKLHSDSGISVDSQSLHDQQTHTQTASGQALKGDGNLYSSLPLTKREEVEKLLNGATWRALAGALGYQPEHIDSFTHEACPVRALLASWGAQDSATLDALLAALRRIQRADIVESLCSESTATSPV
UniProt P08138: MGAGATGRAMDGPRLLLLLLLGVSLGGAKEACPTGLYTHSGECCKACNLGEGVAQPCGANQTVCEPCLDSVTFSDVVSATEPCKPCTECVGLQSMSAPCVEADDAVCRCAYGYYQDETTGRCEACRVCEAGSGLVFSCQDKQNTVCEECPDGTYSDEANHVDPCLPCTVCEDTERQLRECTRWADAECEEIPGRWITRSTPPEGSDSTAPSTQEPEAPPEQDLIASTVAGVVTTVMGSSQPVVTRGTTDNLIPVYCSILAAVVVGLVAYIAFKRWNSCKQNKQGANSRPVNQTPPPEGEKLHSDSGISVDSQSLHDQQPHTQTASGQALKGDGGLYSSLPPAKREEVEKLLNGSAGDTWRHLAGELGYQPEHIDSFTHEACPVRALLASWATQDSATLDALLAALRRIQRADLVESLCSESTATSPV
full-length human p75^NTR, wild type: residues 29-427 of P08138
UniProt P61586, residues 2-190: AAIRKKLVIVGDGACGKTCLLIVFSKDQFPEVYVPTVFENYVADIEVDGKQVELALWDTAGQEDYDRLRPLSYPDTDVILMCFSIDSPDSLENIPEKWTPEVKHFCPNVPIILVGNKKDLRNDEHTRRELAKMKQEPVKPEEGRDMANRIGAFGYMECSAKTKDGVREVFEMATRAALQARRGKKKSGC
UniProt O43353: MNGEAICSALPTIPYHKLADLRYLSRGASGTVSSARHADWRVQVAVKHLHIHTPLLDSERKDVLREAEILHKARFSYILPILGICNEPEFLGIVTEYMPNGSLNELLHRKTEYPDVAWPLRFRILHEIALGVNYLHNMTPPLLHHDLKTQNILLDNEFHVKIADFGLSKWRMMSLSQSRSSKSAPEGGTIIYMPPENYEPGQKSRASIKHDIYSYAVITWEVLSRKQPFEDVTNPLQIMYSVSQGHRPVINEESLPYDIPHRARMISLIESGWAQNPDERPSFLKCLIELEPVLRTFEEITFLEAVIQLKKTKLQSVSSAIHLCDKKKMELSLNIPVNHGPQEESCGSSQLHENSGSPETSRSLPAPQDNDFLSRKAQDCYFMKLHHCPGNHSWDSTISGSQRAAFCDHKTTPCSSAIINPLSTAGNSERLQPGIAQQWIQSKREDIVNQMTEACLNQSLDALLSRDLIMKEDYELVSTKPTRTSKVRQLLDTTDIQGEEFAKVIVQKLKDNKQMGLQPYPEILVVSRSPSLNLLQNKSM

binding [1]: binds
Molecule: full length wild type rat p75^NTR tagged at the C terminus with EGFP(A206K) (from UniProt P07174 30-425) (receptor)

binding [8]: binds
B1: Myc-tagged full-length human RhoGDI, wild type (protein, UniProt P52565 1-204)
chain: MAEQEPTAEQLAQIAAENEEDEHSVNYKPPAQKSIQEIQELDKDDESLRKYKEALLGRVAVSADPNVPNVVVTGLTLVCSSAPGPLELDLTGDLESFKKQSFVLKEGVEYRIKISFRVNREIVSGMKYIQHTYRKGVKIDKTDYMVGSYGPRAEEYEFLTPVEEAPKGMLARGSYSIKSRFTDDDKTDHLSWEWNLTIKKDWKD

binding [8]: no binding
B2: Myc-tagged full-length human RhoGDI, Lys99 substituted by alanine (protein, UniProt P52565 1-204)
chain: B1 chain with K99A

Second part, the molecule before the results:

Molecule: human p75^NTR death domain (330–427) (from UniProt P08138 330-427) (domain or fragment)
binding [2]: binds weakly
binding [3]: no binding
binding [4]: binds weakly
binding [5]: no binding (tested: 125–500 nM)

Molecule: Flag-tagged full-length human RIP2, wild type (from UniProt O43353 1-540) (enzyme)
binding [6]: binds

Molecule: full length rat p75^NTR CARD binding site (CBS) mutant D355A/H359A/E363A tagged at the C terminus with EGFP(A206K) (from UniProt P07174 30-425) (receptor)
binding [7]: binds

B3: Myc-tagged full-length human RhoGDI, Lys199 substituted by alanine (protein, UniProt P52565 1-204)
chain: B1 chain with K199A
binding [8]: no binding

B4: human RhoGDI (2–204) (protein, UniProt P52565 2-204)
chain: AEQEPTAEQLAQIAAENEEDEHSVNYKPPAQKSIQEIQELDKDDESLRKYKEALLGRVAVSADPNVPNVVVTGLTLVCSSAPGPLELDLTGDLESFKKQSFVLKEGVEYRIKISFRVNREIVSGMKYIQHTYRKGVKIDKTDYMVGSYGPRAEEYEFLTPVEEAPKGMLARGSYSIKSRFTDDDKTDHLSWEWNLTIKKDWKD
binding [9]: binds weakly
binding [10]: binds weakly
binding [11]: binds weakly
